Out of some 410,000 compounds screened, about 6,400 (1.6%) were called active. This list was built around the results that the source calls inconclusive (neither active nor inactive); the mix of calls is not that of the screen. The call rests on the fitted dose curve; in most records, active means well fitted inhibition curve with a large enough effect; inconclusive means small, poorly fitted or top-dose-only effect; inactive means no such curve, though single readings can be large or run the other way. Potencies of inconclusive entries are left out as doubtful fits.
biological target: Glucagon-like peptide 1 receptor (Homo sapiens) (UniProt P43220); assay: qHTS of GLP-1 Receptor Inverse Agonists (Inhibition Mode); conditions: HEK293 GLP-1R CRE-luciferase, luminescence, 24 h, GLP-1R form is constitutively active; activity change, negative = inhibition: at 38.3 µM (top of the series) unless noted; further: nearly all actives have a fitted effect of over 55% in size
How it was run: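 Inverse agonism was detected as reduced cAMP-driven luciferase luminescence after 24 h compound treatment. The cells were HEK293 clones expressing constitutively active human GLP-1R with the reporter. Reporter-only and GPR119 cell lines served as counterscreen controls.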
On the % scale 0 is the no-effect control and ±100 the full control effect; potency means the concentration at half of the fitted maximal effect; tags describe the fitted curve by direction and shape.

UniProt P43220, sequence (P43220 whole entry, looked up): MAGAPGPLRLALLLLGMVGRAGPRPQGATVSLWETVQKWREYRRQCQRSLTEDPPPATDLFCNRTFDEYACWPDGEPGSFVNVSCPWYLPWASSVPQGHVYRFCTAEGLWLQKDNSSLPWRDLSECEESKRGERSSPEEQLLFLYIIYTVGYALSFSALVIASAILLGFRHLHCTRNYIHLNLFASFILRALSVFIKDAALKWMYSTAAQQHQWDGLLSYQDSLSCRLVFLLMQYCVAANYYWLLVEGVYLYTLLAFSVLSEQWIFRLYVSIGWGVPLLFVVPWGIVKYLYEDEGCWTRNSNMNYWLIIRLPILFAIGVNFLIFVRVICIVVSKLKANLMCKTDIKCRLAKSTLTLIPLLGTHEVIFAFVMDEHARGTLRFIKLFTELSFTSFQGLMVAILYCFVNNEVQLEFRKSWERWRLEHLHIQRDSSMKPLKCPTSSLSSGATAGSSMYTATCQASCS

Compound	Potency	activity change, negative = inhibition
COc1cccc(-c2nc(CS(=O)CC(=O)NCCc3ccc(C)cc3)c(C)o2)c1 (configuration not stated)	inconclusive [inhibitor, single point]	
CC1CCc2[nH]c3ccc(C(=O)NCCCOC(C)C)cc3c2C1 (configuration not stated)	inconclusive [inhibitor, partial curve, poor fit]	
O=Cc1ccc(OCC(=O)N2CCc3ccccc32)c(Br)c1	inconclusive [inhibitor, partial curve, poor fit]	
O=C(OCc1ccccc1)N1CCC2CC1c1cc(-c3ccccc3)ccc12 (configuration not stated)	inconclusive [inhibitor, single point]	
COc1ccc(NC(=O)c2cc([N+](=O)[O-])ccc2N2CCCCC2)cc1	inconclusive [inhibitor, partial curve, poor fit]	
O=C(c1ccc(Cl)c(Cl)c1)N1CCC(=O)N([C@H](COCc2ccccc2)Cc2ccccc2)CC1	inconclusive [inhibitor, partial curve, poor fit]	
CCc1ccc(C(O)(CC(C)C)C(CN2CCOCC2)c2ccccc2)cc1 (configuration not stated)	inconclusive [inhibitor, single point]	
Cc1ccc(F)cc1NCC(=O)Nc1ccc(Cl)cc1F	inconclusive [inhibitor, single point]	
Clc1cccc(CN2CCN(Cc3ccco3)CC2)c1		inconclusive: -38.8% [inhibitor]
Cc1c(CN2CCC(CO)(CCOc3ccccc3)CC2)[nH]c2ccc(Cl)cc12	inconclusive [inhibitor, partial curve, poor fit]	
CCC1(C)Nc2ccccc2C(=O)N1O (configuration not stated)	inconclusive [inhibitor, partial curve, poor fit]	
COc1ccc(CN2CCN(c3ccccn3)CC2)cc1OCc1ccccc1	inconclusive [inhibitor, partial curve, poor fit]	
OC(CSc1ccccc1)CN1CCN(c2ccccc2)CC1 (configuration not stated)	inconclusive [inhibitor, single point]	
COc1ccc(C2C(C(=O)Nc3ccc(C)cc3C)=C(C)Nc3nc(SCc4cccc(C)c4)nn32)c(OC)c1 (configuration not stated)	inactive	
CCN1CCN(c2cc(C)c3cc(NC(=S)NCCCN4CCc5ccccc5C4)ccc3n2)CC1	inconclusive [inhibitor, full curve]	
CO/N=C(/CS(=O)(=O)c1ccc(C)cc1)c1ccc(OC)cc1	inconclusive [inhibitor, full curve, poor fit]	
CN(C(=O)COC(=O)c1cc2ccccc2cc1O)C1CCCCC1	inconclusive [inhibitor, single point]	

Reference: PubChem BioAssay AID624417 (National Center for Advancing Translational Sciences (NCATS), 2012)
